The whole screen tested about 100,000 compounds, of which about 250 (0.25%) were called active. Inconclusive means that the source gave no clear call. Such entries were picked first, then a sample of the others. The call rests on the fitted dose curve; in most records, active means well fitted inhibition curve with a large enough effect; inconclusive means small, poorly fitted or top-dose-only effect; inactive means flat fitted curve, though single readings scatter. Potencies of inconclusive entries are left out as doubtful fits.
biological target: Alanine aminotransferase 2 (Homo sapiens) (UniProt Q8TD30); assay: Primary qHTS assay for inhibitors of Glutamate pyruvate transaminase 2 (GPT2); settings: Recombinant GPT2, coupled pyruvate oxidase/HRP Amplex Red fluorescence; activity change, negative = inhibition: at 57.7 µM (top of the series) unless noted; series mostly up to 57.7 µM; further: nearly all actives have a fitted effect of over 60% in size
Outline: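 Fluorescence of coupled pyruvate oxidase/HRP/Amplex Red system (50uM Amplex, 30 min, dark) reports pyruvate formed by GPT2. Enzyme reaction: 10ng/uL GPT2, 2mM L-alanine, 250uM a-KG, 30 min room temperature, pH 7.5; 50uM AOA control.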
On the % scale 0 is the no-effect control and ±100 the full control effect; potency means the concentration at half of the fitted maximal effect; tags describe the fitted curve by direction and shape.

Sequence of UniProt Q8TD30 (Q8TD30 whole entry, looked up): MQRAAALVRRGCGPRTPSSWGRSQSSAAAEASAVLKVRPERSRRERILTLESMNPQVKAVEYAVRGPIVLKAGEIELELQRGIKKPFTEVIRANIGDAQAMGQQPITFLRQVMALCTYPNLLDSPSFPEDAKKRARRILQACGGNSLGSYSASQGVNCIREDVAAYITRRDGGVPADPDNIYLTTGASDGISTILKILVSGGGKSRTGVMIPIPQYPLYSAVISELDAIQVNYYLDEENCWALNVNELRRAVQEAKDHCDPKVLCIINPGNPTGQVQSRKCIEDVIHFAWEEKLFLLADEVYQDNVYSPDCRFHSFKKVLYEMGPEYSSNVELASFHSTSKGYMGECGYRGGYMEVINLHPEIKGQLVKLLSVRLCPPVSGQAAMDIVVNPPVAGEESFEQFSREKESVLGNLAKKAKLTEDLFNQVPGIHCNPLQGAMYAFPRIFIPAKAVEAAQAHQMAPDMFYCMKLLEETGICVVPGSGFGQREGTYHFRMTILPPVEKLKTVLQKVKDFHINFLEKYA

Row | SMILES | Potency | outcome | activity change, negative = inhibition
1 | O=C(c1ccc(F)cc1)N1CCCC(C(=O)N2CCCC(c3nc4ncccc4[nH]3)C2)C1 (centres undefined) | inconclusive [inhibitor, full curve, poor fit] |  | 
2 | CSc1cccc(NC(=O)Cn2c(-c3ccc(Cl)cc3)nc(C)c(CCO)c2=O)c1 |  | inactive | 
3 | C=CCN1CCc2c(cc(O)c(O)c2Br)[C@@H](c2ccccc2)C1 | inconclusive [inhibitor, single point] |  | 
4 | Fc1ccccc1-c1nnc([C@H]2CCN(Cc3cccc(Cl)c3)C2)o1 |  | inactive [at 88.5 µM] | 
5 | CC(C)N(Cc1cn(Cc2ccccc2)nc1-c1cc2ccccc2o1)CC1CCC(=O)N1 (centres undefined) | inconclusive [inhibitor, single point] |  | 
6 | CC(C)NC(=O)Cc1ccc(N(Cc2ccc(F)cc2)C(=O)c2ccco2)cc1 | inconclusive [inhibitor, single point] |  | 
7 | CC(=O)N1CCC2(CC1)CCN(c1ncccc1C#N)CC2CO (centres undefined) | inconclusive [inhibitor, partial curve, poor fit] |  | 
8 | COc1cccc(CNC(=O)c2nc3cccnc3n(C3CCCCC3)c2=O)c1 |  |  | inactive: 0.893%
9 | Cc1cc(C)cc(-c2ccc(CN3CCCC(N[S+](=O)([O-])c4cccc(C(F)(F)F)c4)C3)cc2)c1 (centres undefined) |  |  | inactive: -10.9%
10 | CC(C)Cn1c(=O)c(C(=O)Nc2cccc(Cl)c2)nc2cccnc21 | inconclusive [inhibitor, single point] |  | 
11 | COc1ccc(Nc2ccnc(N3CCC(NC(=O)Cc4ccc(C(F)(F)F)cc4)CC3)n2)cc1 | inconclusive [inhibitor, partial curve, poor fit] |  | 
12 | Cc1cccc(C#Cc2ccccc2)n1 | inconclusive [inhibitor, single point] |  | 
13 | Cc1cccc(NC(=O)C23CCC=C2N(C2CCCC2)C(=O)CC3)c1 (centres undefined) |  | inactive | 
14 | O=C(Nc1ccc(Cl)nc1)c1ccc2ccnn2c1 |  |  | inactive: 4.95% [at 88.5 µM]
15 | N[C@H](C(=O)O)c1cc(O)cc(O)c1 | inconclusive [inhibitor, single point] |  | 
16 | CC(C)Cn1c(=O)c(C(=O)N2CCN(c3ncccn3)CC2)nc2cccnc21 |  |  | inactive: 3.98%
17 | CCCn1ccnc1CN1CCCn2nc(-c3nc4ccccc4n3C)cc2C1 | inconclusive [inhibitor, partial curve, poor fit] |  | 
18 | CC1=C(CO)C(=O)O[C@@H]([C@@H](C)[C@H]2CC[C@H]3[C@@H]4C[C@H]5O[C@]56[C@@H](O)C=CC(=O)[C@]6(C)[C@H]4CC[C@]23C)C1 |  |  | inactive: 1.61% [at 27.3 µM]
19 | c1ccc(CCN2CCNc3cc(Nc4ccc(N5CCOCC5)cc4)ncc3C2)cc1 | active: 14.1 µM |  | 
20 | CCC(C(=O)N1CCCN(c2cc(-c3ccc(OC)cc3)[nH]n2)CC1)c1ccccc1 (centres undefined) | inconclusive [inhibitor, single point] |  | 
21 | CCn1nccc1C(=O)N1CCC2(CC1)CC(N1CCN(CC(C)C)CC1)CCO2 (centres undefined) | inconclusive [inhibitor, single point] |  | 
22 | COc1ccc(CN2CCC3(CC2)C(C(=O)O)CC(=O)N3C)cc1Cl (centres undefined) | inconclusive [inhibitor, single point] |  | 

Row | SMILES | Potency | outcome | activity change, negative = inhibition
23 | CN1CCC2(CCC1=O)CN(Cc1nc3c(s1)CCCC3)CCN2C (centres undefined) | inconclusive [inhibitor, partial curve, poor fit] |  | 
24 | COc1cccc(NC(=O)Cn2c(N3CCc4ccccc4C3)nc(C)cc2=O)c1 | inconclusive [inhibitor, single point] |  | 
25 | CCC1CCCCN1C(=O)c1ccc(-c2nnc3ccc(NC(=O)C4CCC4)cn23)cc1 (centres undefined) |  |  | inactive: -9.83%
26 | FC(F)(F)c1ccnc(N2CCC(OCc3cccnc3)CC2)n1 | inconclusive [inhibitor, single point] |  | 
27 | COc1ccc(Cl)cc1C(=O)N1CCC(n2cc(-c3nc(C)no3)nn2)CC1 |  |  | inactive: -5.04%
28 | OCc1cccc(-c2ccc3ncc(Nc4cccc(F)c4)n3n2)c1 | inconclusive [inhibitor, full curve, poor fit] |  | 
29 | CN(Cc1cccc(O)c1)C(=O)[C@H]1C[C@@H](C(=O)O)N(C)[C@H]1c1ccccc1F | inconclusive [inhibitor, full curve, poor fit] |  | 
30 | Cn1ncc2c(C(=O)NCc3ccccn3)cc(-c3ccc(F)cc3)nc21 | inconclusive [inhibitor, single point] |  | 
31 | CCc1ccc(NC(=O)N2CCC(Oc3ncccc3C(=O)N3CCOCC3)C2)cc1 (centres undefined) |  |  | inconclusive: -32.6% [inhibitor]
32 | CN(C)CCNC(=O)c1nc2nc(-c3ccccc3)c(-c3cccc(Cl)c3)cc2n1C |  |  | inactive: -8.86% [at 88.5 µM]
33 | CNC(=O)[C@H]1CN(C(=O)CCc2ccccc2)[C@]2(C)C(=O)N(CCO)c3ccccc3[C@H]12 |  |  | inactive: 1.78% [at 27.3 µM]
34 | O=C(NCc1ccccc1-n1cncn1)C1CC(=O)N(Cc2ccccn2)C1 (centres undefined) | inconclusive [inhibitor, partial curve, poor fit] |  | 
35 | COc1ccccc1-c1onc(C)c1C(=O)NCCC(c1ccccc1)c1ccccc1 | inconclusive [inhibitor, single point] |  | 
36 | CN1C[C@@H](NC(=O)CCC(=O)O)C[C@H]1c1nc(-c2ccc3ccccc3c2)no1 |  | inactive [at 88.5 µM] | 
37 | CN1C(=O)C2(CCN([S+](=O)([O-])c3cccs3)C2)c2ccccc21 (centres undefined) |  |  | inactive: 2.87%
38 | O=C1NCCC[C@@H]1NC(=O)[C@@H]1CN(C(=O)C2CCCCC2)CCN1C(=O)c1cccc(F)c1 |  | inactive | 
39 | O=C(Nc1n[nH]c(Cc2ccccc2)n1)N1CCN(C(=O)c2ccco2)CC1 | inconclusive [inhibitor, single point] |  | 
40 | O=C(NCCc1ccc(Cl)cc1)c1cn2cc(-c3cccc(C(F)(F)F)c3)sc2n1 |  |  | inactive: -28.7%
41 | CCN1C(=O)C2CC3(CCN(C(=O)c4nccc5ccccc45)CC3)CN2C1=O (centres undefined) | inconclusive [inhibitor, single point] |  | 
42 | Cc1ccc([S+](=O)([O-])N2CCC[C@@H]2C(=O)N2CCC(N3CCOC3=O)CC2)cc1 | inconclusive [inhibitor, single point] |  | 
43 | COc1ccc(-c2cc(N3CCC(NC(=O)c4ccccn4)C3)n[nH]2)cc1 (centres undefined) | inconclusive [inhibitor, partial curve, poor fit] |  | 
44 | O=C(NCCn1ccn2nc(-c3ccc(F)cc3)cc2c1=O)c1ccco1 | inconclusive [inhibitor, single point] |  | 

Row | SMILES | Potency | outcome | activity change, negative = inhibition
45 | COc1ccc(CC(=O)N2CCCN(c3cc(-c4ccccc4)[nH]n3)CC2)cc1 | inconclusive [inhibitor, partial curve, poor fit] |  | 
46 | Cc1ccc2c(n1)N(C)[C@H](CO)CCN(Cc1ccc(OC(F)(F)F)cc1)C2 | inconclusive [inhibitor, single point] |  | 
47 | C=CC[N+]1([C@H]2C[C@H]3[C@@H]4CC[C@H]5C[C@H](OC(C)=O)[C@@H](N6CCCCC6)C[C@]5(C)[C@H]4CC[C@]3(C)[C@H]2OC(=O)CC)CCCCC1 | inconclusive [inhibitor, partial curve, poor fit] |  | 
48 | CC(C)NC(=O)c1ccc2nnc(-c3ccc(C(F)(F)F)cc3)n2c1 |  |  | inactive: 0.52%
49 | Cc1ccc(OCC(=O)NCCC2CCN(C(=O)Nc3cc(F)cc(F)c3)CC2)cc1 |  |  | inactive: -3.46%
50 | O=C(N[C@@H]1CN(Cc2ccccn2)CCC[C@H]1O)c1ccc(OCc2ccccc2)cc1 | inconclusive [inhibitor, partial curve, poor fit] |  | 
51 | CN(C)c1cccc(Nc2cc3c(cn2)CN(Cc2ccccc2)CCN3)c1 |  |  | inactive: -15.7% [at 88.5 µM]
52 | Cc1ccc(NC(=O)N2Cc3[nH]cnc3C[C@H]2c2nc(-c3ccc(Cl)cc3)no2)cc1 |  |  | inactive: -10.7% [at 88.5 µM]
53 | O=C1NC(=NC2CCCCC2)C2(CCN(Cc3ccc(F)cc3)CC2)N1c1cc(F)cc(F)c1 | inconclusive [inhibitor, single point] |  | 
54 | CN(C)c1ccc(C(=O)N2CCC3(CC2)NC(=O)N(c2cccc(F)c2)N3)cc1 | inconclusive [inhibitor, single point] |  | 
55 | COC(=O)Nc1nc2ccc(S(=O)c3ccccc3)cc2[nH]1 (centres undefined) | inactive |  | 
56 | CCn1cc(C(=O)O)c(=O)c2cc3c(cc21)OCO3 | inconclusive [inhibitor, single point] |  | 
57 | O=C(Nc1cccc(-c2ccc(N3CCOCC3)nn2)c1)Nc1cccc(C(F)(F)F)c1 | inconclusive [inhibitor, single point] |  | 
58 | Cc1cc(C)n(CC(=O)N2CCN(Cc3ccccc3)CC(O)C2)c(=O)n1 (centres undefined) | inconclusive [inhibitor, full curve] |  | 
59 | CC1=C[C@@H](CNS(=O)(=O)c2ccccc2)[C@H](C(C)C)C[C@H]1CC(=O)NCc1ccc(C#N)cc1 | inconclusive [inhibitor, full curve, poor fit] |  | 
60 | O=C1CC2(CCN(C(=O)C3CCN(C(=O)C4CCCC4)C3)CC2)Oc2ccccc2N1 (centres undefined) | inconclusive [inhibitor, single point] |  | 
61 | Fc1ccc2c(c1)nc1n2[C@@H](CNC2CCOCC2)COC1 | inconclusive [inhibitor, partial curve, poor fit] |  | 
62 | CC(C)CNC(=O)C(NC(=O)c1ccccc1Cl)C1CCN(C(=O)c2ccccc2F)CC1 (centres undefined) |  |  | inactive: -12%
63 | CC(C)=CCC/C(C)=C/CO | inconclusive [inhibitor, partial curve, poor fit] |  | 
64 | Fc1ccccc1-c1noc2c1CN(Cc1cccn1-c1nccs1)CC2 | inconclusive [inhibitor, single point] |  | 

Source: PubChem BioAssay AID1671188 (National Center for Advancing Translational Sciences (NCATS), 2021)
